These results are taken from publication PMC12136788.

T1: UNK ZnF1-6 (called full-length) (human, UniProt Q9C0B0 30-357)
T1 sequence: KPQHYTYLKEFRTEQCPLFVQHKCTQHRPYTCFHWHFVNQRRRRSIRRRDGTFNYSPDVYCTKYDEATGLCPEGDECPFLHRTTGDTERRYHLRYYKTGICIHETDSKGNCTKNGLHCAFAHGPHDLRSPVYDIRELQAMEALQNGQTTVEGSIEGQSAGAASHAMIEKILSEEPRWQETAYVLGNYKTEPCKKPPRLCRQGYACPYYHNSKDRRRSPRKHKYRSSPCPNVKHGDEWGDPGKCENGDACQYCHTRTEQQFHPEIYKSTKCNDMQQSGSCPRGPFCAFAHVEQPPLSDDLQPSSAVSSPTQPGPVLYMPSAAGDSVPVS

B1: chr10:128108355:128108456:-|CDS|ENSG00000148773|msi1|total|mutant (ssRNA)
RNA: GGGAGUUCUACAGUCCGACGAUCAGUGGACACUCCAACAAGCACAAAGCAAUGGCCUAAGAGAAGUCUCAGGAAAGCAGAUGCCGAGGAAGAAUUCUCCGCACUCAGGAAACUAACACCAUCAGCAGGGAAAGCCAUGCUUACCAACAGAGGAUUGAGCAUCA
B2: chr17:57974666:57974767:-|CDS|ENSG00000136451|msi1|total|mutant (ssRNA)
RNA: GGGAGUUCUACAGUCCGACGAUCGAGCAUGAGAAGUCCAGUAAAUGUUUCAAGUGCAGUUAACAUAACCAGCCCAAUGAACACCGGGCAUCCUGUAACUAUAACCAGUCCAUUAUCCAUGACCUCUCCUUUAACACUCACUACCAACAGAGGAUUGAGCAUCA
B3: chr12:114680981:114681101:-|CDS|ENSG00000135111|unk|total|mutant (ssRNA)
RNA: GGGAGUUCUACAGUCCGACGAUCUAAAGUGAGAUGUUCUGGGCUGGAUAAAAAAGCCAAAUACAUUUUAUUGAUGGACAUUACCGCUGCUGAUGACUGUCGUUAUAAAUUUCACAAUUCUCGGUGGAUGGUGGCUGGUAAGGCCAACAGAGGAUUGAGCAUCA
B4: chr3:52829118:52829279:-|CDS|ENSG00000055955|control|control|control (ssRNA)
RNA: GGGAGUUCUACAGUCCGACGAUCGUGGACUCCAGGGUCUCAUCCCGAUUUGCCCACACGGUCGUCACCAGCCGAGUGGUCAAUAGGGCCAAUACUGUGCAGGAGGCCACCUUCCAGAUGGAGCUGCCCAAGAAAGCCUUCAUCCAACAGAGGAUUGAGCAUCA
B5: chr7:139306712:139306813:+|3pUTR|ENSG00000157741|msi1|FALSE|bound_elsewhere (ssRNA)
RNA: GGGAGUUCUACAGUCCGACGAUCAUCUGGGGCUUGCCCUUGGAUUUCACUUGUUAAACACCCUCAAACUUAAAAGAAGAAAAUAGAUCUCCAGCUGGUGAAAAUUUUGUGCCCCAAAUAAUAUAUUAAUCCAAGUCUACCAAGCAACAGAGGAUUGAGCAUCA
B6: chr3:15254852:15254953:-|3pUTR|ENSG00000131370|msi1|total|mutant (ssRNA)
RNA: GGGAGUUCUACAGUCCGACGAUCAAACUGUUAAUUCUGUCACAGCCUGUAUAUUUCCGUCAUUUGUAAAUCUCUUCAUACAACCGUGACUUCUUUUUUGACUGAUACAGUAUCUUAAUUACAAGGUUAUUUUGUACUUGUCUUCAACAGAGGAUUGAGCAUCA
B7: chr1:16399343:16399521:-|CDS|ENSG00000187144|control|control|control (ssRNA)
RNA: GGGAGUUCUACAGUCCGACGAUCGCUCUGCCCACAGCUGGACAAGAAGAUGGUCCGUAGGCAGCCGAGCAACCACUAUGCACUAGACCAGUGCACACCCCCUGGCCUGGAUCCUGACAUCCGCAGCCCCUUCUUCCAGUCAGGCAACAGAGGAUUGAGCAUCA
B8: chr6:107870184:107870285:-|3pUTR|ENSG00000025796|msi1|total|mutant (ssRNA)
RNA: GGGAGUUCUACAGUCCGACGAUCUAAUAUUUCCUAUAAAAGGGUGAAAGCAGUUUCUUUCUCUAUAACCUCAAUCACCAGUUCCGUGAGAGCCUUUCUUGGCAGGCAGGAGGCAGUGUCACUGAGGAUUUUUUUCAUUUACUUCAACAGAGGAUUGAGCAUCA
B9: ENSG00000198589:be:win_4951|CDS|ENSG00000198589|bound_else_gene|NA|bound_elsewhere_windowed (ssRNA)
RNA: GGGAGUUCUACAGUCCGACGAUCUCUCCGGAAACCAAAAAUGAUAGAGGAAAUGACUUGGACACUAAGGCUACACCGUCAGUUUCAGUUUCAAAAAACGUCAAUGUGAAAGACAUUCUCCGAAGCUUGGUUAACAUACCAGCACAACAGAGGAUUGAGCAUCA
B10: ENSG00000075711:stop:overlap|stop_codon|ENSG00000075711|stop_codon|NA|stop_codon (ssRNA)
RNA: GGGAGUUCUACAGUCCGACGAUCCAGAAAAAAUAAUGGAAAUAAAGCUCAUUAAAGGUCCUAAAGGUAUGUGGUCUUGGGUUUAGCAUUGCUGGAGGUGUUGGAAAUCAGCAUAUUCCUGGGGAUAAUAGCAUCUAUGUAACCCAACAGAGGAUUGAGCAUCA
B11: chr3:128462549:128463245:-|CDS|ENSG00000179407|control|control|control (ssRNA)
RNA: GGGAGUUCUACAGUCCGACGAUCCGGGAGUUUUUUGGUGGCCUGGACCCUUUCUCCUUUGAGUUCUGGGACAGCCCAUUCAAUAGUGACCGUGGUGGCCGGGGCCAUGGCCUGAGGGGGGCCUUCUCGGCAGGCUUUGGAGAACAACAGAGGAUUGAGCAUCA
B12: ENSG00000111696:stop:overlap|stop_codon|ENSG00000111696|stop_codon|NA|stop_codon (ssRNA)
RNA: GGGAGUUCUACAGUCCGACGAUCCCUGGUCAGAAAGGCCCCCCACCUUCGGAACCCCUCUCCUGCAGGAGGCCCAGGCCAAGUAGCCAAGGGCAAAAACUAGAAACUGUAACUGCCCCUGAUUGGGCAGGCAUGAUGGGGUUGCAACAGAGGAUUGAGCAUCA
B13: ENSG00000124766:be:win_151|CDS|ENSG00000124766|bound_else_gene|NA|bound_elsewhere_windowed (ssRNA)
RNA: GGGAGUUCUACAGUCCGACGAUCUGGUGCAAGACCCCGAGUGGGCACAUCAAGCGACCCAUGAACGCCUUCAUGGUGUGGUCGCAGAUCGAGCGGCGCAAGAUCAUGGAGCAGUCGCCCGACAUGCACAACGCCGAGAUCUCCCAACAGAGGAUUGAGCAUCA
B14: chr7:73831540:73831641:+|CDS|ENSG00000189143|msi1|total|mutant (ssRNA)
RNA: GGGAGUUCUACAGUCCGACGAUCCAAGGCCAAGACCAUGAUCGUGGCGGGCGUGGUGUUCCUGUUGGCCGGCCUUAUGGUGACCGUGCCGGUGUCCUGGACGGCCCACAACAUCAUCCAAGACUUCUACAAUCCGCUGGUGGCCAACAGAGGAUUGAGCAUCA

The other results are listed elsewhere or left out.

The target of this experiment is T1, UNK ZnF1-6 (called full-length). As to the kind of experiment: nsRBNS (natural sequence RNA bind-n-seq); RBNS binding buffer (assumed for nsRBNS): 25 mM Tris pH 7.5, 150 mM KCl, 3 mM MgCl2, 0.01% Triton X-100, 500 ug/ml BSA, 20 U/ml SUPERase-In, 4 C; UNK is unkempt and MSI1 is Musashi-1; names of the RNAs are library labels; protein concentration not given here; high values mean tight binding.
B1: the binding signal was 0.623 enrichment R.
Take B2: the binding signal was 0.617 enrichment R.
As to B3, the binding signal came to 0.617 enrichment R.
B4 gave a binding signal of 0.721 enrichment R.
B5 showed a binding signal of 1.25 enrichment R.
Regarding B6, the binding signal came to 0.429 enrichment R.
To B7 belongs 0.685 enrichment R; to B8, 0.72 enrichment R; to B9, 0.333 enrichment R.
As to B10, the binding signal was found to be 0.524 enrichment R.
For the molecule B11, the binding signal turned out to be 1.07 enrichment R.
B12 yielded a binding signal of 0.762 enrichment R.
As for B13, the binding signal amounted to 0.504 enrichment R.
In turn, B14 registered a binding signal of 0.537 enrichment R.
